# Results reported in the supplement of paper PMC3334620.
# Over roughly 33,000 sequences, “E-score (-0.5 to 0.5)” has its median near -0.054; the highest 2% begin near 0.35. Some of the results follow.
# Target: T1, Stb5 (UniProt P38699)
# T1 sequence: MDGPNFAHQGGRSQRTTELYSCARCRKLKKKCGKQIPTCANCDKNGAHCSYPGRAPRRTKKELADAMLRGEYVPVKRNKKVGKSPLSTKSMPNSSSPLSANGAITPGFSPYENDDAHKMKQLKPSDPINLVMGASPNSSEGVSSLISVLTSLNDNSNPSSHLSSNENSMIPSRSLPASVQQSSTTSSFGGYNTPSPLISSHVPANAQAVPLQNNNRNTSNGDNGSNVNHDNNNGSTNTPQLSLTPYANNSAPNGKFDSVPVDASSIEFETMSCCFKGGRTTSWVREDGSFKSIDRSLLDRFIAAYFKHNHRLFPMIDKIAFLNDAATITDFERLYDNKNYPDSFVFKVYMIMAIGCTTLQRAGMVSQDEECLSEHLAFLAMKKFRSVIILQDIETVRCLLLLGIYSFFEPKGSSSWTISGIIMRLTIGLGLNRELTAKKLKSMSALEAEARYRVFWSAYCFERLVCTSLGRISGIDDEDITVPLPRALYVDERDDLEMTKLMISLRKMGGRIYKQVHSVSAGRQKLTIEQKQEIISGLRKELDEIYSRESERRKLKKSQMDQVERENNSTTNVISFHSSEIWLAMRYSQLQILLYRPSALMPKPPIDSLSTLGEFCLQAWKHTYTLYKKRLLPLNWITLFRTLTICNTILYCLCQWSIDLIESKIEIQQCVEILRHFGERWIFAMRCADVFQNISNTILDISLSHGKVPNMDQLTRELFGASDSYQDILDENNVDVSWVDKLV
# Experiment: PBM E-score (8-mer binding enrichment) (E-score (-0.5 to 0.5)); higher = stronger / more preferred TF binding; most listed sequences are background and not binding sites
# Details: protein concentration: 200 nM; construct: GST-full length
# Outline: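 Yeast transcription factors, full-length or as DNA-binding domains, were expressed with a GST tag using PURExpress in vitro transcription/translation. At about 100-200 nM they were applied to universal all-10-mer Agilent arrays, double-stranded by primer extension on fresh or once-stripped slides. Fluorescent anti-GST detected bound protein, and masliner normalised the scans. E-scores for ungapped eight-base words, pooled with reverse complements, came from the Universal PBM Analysis Suite.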
row,Sequence,PBM E-score
1,GGACTAAC,0.195
2,AAAGAATG,-0.0317
3,AACCTCCT,-0.234
4,GACCTGGA,-0.086
5,AGCCTAAC,-0.0833
6,CAATCCGA,-0.0426
7,AGTGGCCC,-0.181
8,GCCCCACC,0.0597
9,CCGTGCTC,0.178
10,CCTCGTCC,-0.179
11,ATATGTTC,0.207
12,GGTATGAC,0.216
13,CCTCTGAA,-0.184
14,ATAATCAC,0.00531
15,TTACAAAA,-0.079
16,GGCCCAGA,-0.0979
17,AAGCCGAT,0.2
18,GGCGGCCA,0.0426
19,TATACTAA,-0.108
20,ATTTACGC,-0.025
21,ATATTCGG,0.0467
22,AGTTGAGA,-0.114

row,Sequence,PBM E-score
1,GCTTGCTA,-0.289
2,AAGTTTCA,-0.169
3,CGCACACA,0.111
4,GGCGCCAA,0.113
5,CGTCAGTC,0.0486
6,ACCGAGTC,-0.0245
7,ACCGACAG,0.363
8,CCCGACCC,0.247
9,ACTATATA,0.138
10,CTGATAAA,-0.0855
11,GATAGCCA,-0.26
12,AGGCCCAG,-0.226
13,CATGCTAC,-0.125
14,GCACAGAA,-0.141
15,CCGGAGTA,0.308
16,CTGCGTTC,-0.151
17,CATACCAA,0.0245
18,AGACGATC,-0.0318
19,ACTGGGAC,-0.183
20,AACAACGT,0.0245
21,GCACAGCA,-0.101
22,ATCGTCTG,0.029

row,Sequence,PBM E-score
1,CCCGCGGG,0.361
2,GGACCGTA,0.133
3,ACGTGCCA,-0.0713
4,CAGGCTAG,-0.239
5,ACGCACGA,0.0453
6,CTGTGAAA,-0.199
7,ATAGTTCG,0.0392
8,AAATTCCT,-0.0227
9,CGTGTCAG,0.0272
10,ATATACAT,-0.028
11,CCTCCAGC,-0.25
12,GAAACTAC,-0.126
13,CTTGTTCC,0.0415
14,CATTGTAG,-0.105
15,ACGACCTC,0.0629
16,AGGTATTG,-0.198
17,GAACACTA,-0.184
18,ATTGTTTA,-0.27
19,CTCGAACC,-0.0371
20,CACAGGAG,-0.148
21,CTGTGTGC,-0.193
22,CGCTACGA,0.0937

row,Sequence,PBM E-score
1,CGTGCCCC,-0.0709
2,TAACAGTA,-0.227
3,ACGTTACT,-0.186
4,TCAAAGCA,-0.0769
5,AACACAAA,-0.0729
6,CATTGTCG,0.126
7,ACAGTCAA,-0.247
8,GCGAGCTA,-0.101
9,AGAGTAAA,-0.179
10,GGACGCAA,0.148
11,ATAGTAAC,0.0164
12,ATGCGTCC,0.0995
13,ACCTGAAG,-0.043
14,GCGGACGA,0.198
15,AGCGCGTA,-0.0799
16,AAATAGGT,3e-05
17,AGTAAACT,-0.0545
18,ATCCCGAA,0.191
19,TAAATTGA,-0.0471
20,AGAGCATG,-0.229
